The test system of this assay is L1210 leukemia ip in BDF1 mice, survival T/C. Description: NCI In Vivo Anticancer Drug Screen. Data for tumor model L1210 Leukemia (intraperitoneal) in B6D2F1 (BDF1) mice. To be noted: vehicle: saline, higher = longer survival.

T/C data for two molecules are collected here from PubChem BioAssay AID248 (DTP/NCI, 2004).

Toxic doses and inconclusive results are not listed. For part of its entries the source gives two or more results. This list holds those alone. There may be further records. The values listed for one entry differ for a reason that is not stated; dose, time, organism, isomer or construct need not be as stated for each record.

Consider `c1cc2n(n1)CCN2`, for which the T/C (endpoint: median survival time, dose: 800.0 mg/kg/injection, schedule: Q08DX002 (ip)) was 120 % of control and 188 % of control.

With `Nc1nc(N)c2cc(CNc3ccc(C(=O)NC(CC(=O)O)C(=O)O)cc3)ccc2n1` (configuration not stated), the T/C (endpoint: mean survival time, dose: 2.5 mg/kg/injection, schedule: Q01DX009 (ip)) is 100 % of control and 183 % of control.
